pKi: −log10 of the molar value.

The pKi is the negative decadic logarithm of the Ki, by convention in mol/L.

For the first assay, the target named is Recombinant heterodimeric HCV NS3/NS4A protease (strain 1a) (Hepatitis C virus genotype 1a, UniProt P27958). The assay can be described thus: Spectrophotometric assay for HCV serine protease inhibitory activity (chromogenic ester substrates). Format: biochemical. As to conditions: Table 3, sulfone compounds; HCV serine protease; read-out: Ki* range.
Consider `CC(C)(C)[C@H](NC(=O)N[C@H](CS(=O)(=O)c1ccccc1)C(C)(C)C)C(=O)N1C[C@H]2[C@@H]([C@H]1C(=O)NC(CC1CCC1)C(=O)C(N)=O)C2(C)C` (stereo partly drawn) [Compound 167], for which the negative-log Ki (pKi) was more than 7.12.

`CC(C)(C)[C@H](NC(=O)N[C@H](CS(=O)(=O)C(C)(C)C)C(C)(C)C)C(=O)N1C[C@H]2[C@@H]([C@H]1C(=O)NC(CC1CCC1)C(=O)C(N)=O)C2(C)C` (stereo partly drawn) [Compound 176]: the pKi is more than 7.12.

Still in this assay, the particulars now being: Table 3A; class symbols; read-out: Ki* Range.
On to `C#CCNC(=O)C(=O)[C@H](CCC1CC1)NC(=O)[C@@H]1[C@@H]2[C@H](CN1C(=O)[C@@H](NC(=O)NC1(CS(=O)(=O)C(C)(C)C)CCCCC1)C(C)(C)C)C2(C)C` [Compound 721], for which the pKi is more than 7.12. Same read-out and setting: under `C=CCNC(=O)C(=O)C(CCC1CC1)NC(=O)[C@@H]1[C@@H]2[C@H](CN1C(=O)[C@@H](NC(=O)NC1(C3CCCS3(=O)=O)CCCCC1)C(C)(C)C)C2(C)C` (stereo partly drawn) [Compound 619] stands more than 7.12.

As to `CCCC(NC(=O)[C@@H]1[C@H]2CC(C)(C)O[C@H]2CN1C(=O)[C@@H](NC(=O)NC1(CS(=O)(=O)C(C)(C)C)CCCCC1)C1CCCCC1)C(=O)C(=O)NC1CC1` (stereo partly drawn) [Compound 552], the pKi was 6.60 to 7.12. Same read-out and setting: under `C=CCNC(=O)C(=O)C(CC1CC1)NC(=O)[C@@H]1[C@@H]2[C@H](CN1C(=O)[C@@H](NC(=O)NC1(CS(=O)(=O)CC)CCCCC1)C1(C)CCCCC1)C2(C)C` (stereo partly drawn) [Compound 530] stands more than 7.12; under `C=CCNC(=O)C(=O)C(CC1CC1)NC(=O)C1C2C(CN1C(=O)C(NC(=O)NC1(C[S@TB4](=O)(=O)C3(C)CCCCC3)CCCCC1)C(C)(C)C)C2(C)C` (stereo not drawn) [Compound 712], more than 7.12. Same read-out and setting: under `C=CCNC(=O)C(=O)[C@H](CC1CC1)NC(=O)[C@@H]1CC2(CN1C(=O)[C@@H](NC(=O)NC1(CS(=O)(=O)C(C)(C)C)CCCCC1)C(C)(C)C)SCCCS2` [Compound 732] stands more than 7.12.

The assay is the same for the next values; noted with them: Table 4A; read-out: Ki* Range.
For `C=CCNC(=O)C(=O)C(CCCC)NC(=O)[C@@H]1[C@@H]2[C@H](CN1C(=O)[C@@H](NC(=O)N[C@H]([C@H]1CCN(Cc3ccc(OC)cc3)S1(=O)=O)C(C)(C)C)C1(C)CCCCC1)C2(C)C` (stereo partly drawn) [Compound 1114], the pKi was less than 6.60.

Source of the values: patent US8067379B2, “Sulfur compounds as inhibitors of hepatitis C virus NS3 serine protease” (Schering Corporation, priority 2004, dated 2011).
